In PubChem BioAssay AID624296 (National Center for Advancing Translational Sciences (NCATS), 2012):
The campaign covered roughly 350,000 compounds. About 9,900 (2.8%) were called active. This list was built around the results that the source calls inconclusive (neither active nor inactive); the mix of calls is not that of the screen. The call rests on the fitted dose curve; in most records, active means well fitted activation curve with a large enough effect; inconclusive means small, poorly fitted or top-dose-only effect; inactive means no such curve, though single readings can be large or run the other way. No potency is given beside an inconclusive call; the fits are too rough. Where a structure was tested more than once in an assay, its records may differ in their call.

assay: A quantitative high throughput screen for small molecules that induce DNA re-replication in MCF 10a normal breast cells.; further: nearly all actives have a fitted effect of over 50% in size; on activity, positive = re-replication: % of control where 0% means no effect; settings: MCF 10A DNA re-replication, Hoechst nuclear intensity, 48 h; activity, positive = re-replication: at 46.1 µM (top of the series)
Potency means the concentration at half of the fitted maximal effect; tags describe the fitted curve by direction and shape.

Question: With `COc1ccc(OCCCCN(C)Cc2ccccc2)cc1` as the molecule, how does the Potency read?
Answer: inconclusive [activator, single point]

Question: Which Potency does the source give for `Cc1[nH]c2ccccc2c1/C=N/NC(=O)c1cccc(S(=O)(=O)Nc2cccc(C(F)(F)F)c2)c1` here?
Answer: inconclusive [activator, single point]

Question: Which Potency does the source give for `COC(=O)c1ccc(/C=C(\C#N)c2ccccn2)cc1` here?
Answer: inconclusive [activator, partial curve, poor fit]

Question: For `CCC1C(=O)N(c2nc(C)cc(C)n2)N=C1C` (configuration not stated), which Potency is on record?
Answer: inconclusive [activator, partial curve, poor fit]

Question: With `CCn1c(SCC(=O)Nc2oc(-c3ccccc3)c(-c3ccccc3)c2C#N)nnc1-c1cc(OC)cc(OC)c1` as the molecule, how does the Potency read?
Answer: inconclusive [activator, partial curve, poor fit]

Question: For `O=C(CN1C(=O)NC2(CCCCCC2)C1=O)Nc1ccc(Br)cc1Br`, which “activity, positive = re-replication” value is on record?
Answer: inactive: 1.36%

Question: For `O=C(CN1C(=O)CS/C1=C\c1nc(-c2ccc(Cl)cc2)cs1)Nc1cccnc1Cl`, which Potency is on record?
Answer: inconclusive [activator, single point]

Question: Which Potency does the source give for `NS(=O)(=O)c1ccc(Nc2nc(-c3ccc(F)cc3)cs2)cc1` here?
Answer: inconclusive [activator, single point]

Question: Which Potency does the source give for `COc1ccc2nc(N(Cc3ccccc3)C(=O)CCNC(C)=O)sc2c1` here?
Answer: inconclusive [activator, single point]

Question: For `COc1cc(-c2nnc(Sc3ccc(C(F)(F)F)cc3[N+](=O)[O-])o2)cc(OC)c1OC`, which Potency is on record?
Answer: active: 18.4 µM

Question: Which Potency does the source give for `Cc1c(C(=O)N2CCC(C)CC2)sc2ncnc(N(C)c3ccccc3)c12` here?
Answer: inconclusive [activator, partial curve, poor fit]

Question: For `CC(C)CC(NC(N)=O)C(=O)NCCc1ccc(Cl)cc1` (configuration not stated), which “activity, positive = re-replication” value is on record?
Answer: inactive: -1.38%

Question: For `CCCOc1ccc(CCCN=C(N)N)cc1Cl`, which Potency is on record?
Answer: inconclusive [activator, single point]

Question: With `Cc1ncc([N+](=O)[O-])n1CC(C)O` (configuration not stated) as the molecule, how does the Potency read?
Answer: inconclusive [activator, full curve, poor fit]

Question: Which Potency does the source give for `CC(C)(C)OC(=O)N1CCN(C(=O)c2[nH]cnc2C(=O)N[C@@H](Cc2ccccc2)C(=O)OCc2ccccc2)CC1` here?
Answer: inconclusive [activator, partial curve, poor fit]

Question: Which “activity, positive = re-replication” value does the source give for `CCn1c(CN2CCN(c3ccc(Cl)cc3)CC2)nc2ccccc21` here?
Answer: inactive: 11.8%

Question: For `CCC(C(=O)N1CCN(S(C)(=O)=O)CC1)c1ccccc1` (configuration not stated), which “activity, positive = re-replication” value is on record?
Answer: inactive: -0.489%

Question: With `COc1ccc(CCN2C(=O)CSC2=Nc2ccc(C(C)C)cc2)cc1OC` as the molecule, how does the Potency read?
Answer: active: 16.4 µM

Question: For `N#CCCCc1cc2ccccc2cn1`, which “activity, positive = re-replication” value is on record?
Answer: inactive: 1.52%

Question: Which “activity, positive = re-replication” value does the source give for `COc1ccc(CNC(=S)N/N=C/c2ccc(OC)c(OC)c2)cc1` here?
Answer: inactive: 22.7%

Question: With `CCN(c1ccccc1)S(=O)(=O)c1ccc(Cl)c(C(=O)NCC2CCCO2)c1` (configuration not stated) as the molecule, how does the Potency read?
Answer: inconclusive [activator, single point]

Question: For `Cc1cccc(/C=C/c2nc3ccccc3c(=O)[nH]2)c1`, which Potency is on record?
Answer: active: 8.2 µM

Question: Which Potency does the source give for `Cc1cccc(-c2cc3c(N=O)c4ccccc4c-3n[nH]2)c1` here?
Answer: inconclusive [activator, single point]

Question: With `CC[C@@]12C(=O)N(c3cccc(F)c3)C(=O)N1[C@H](c1ccc(F)cc1)[C@@H]1C(=O)N(C3CCCCC3)C(=O)[C@@H]12` as the molecule, how does the Potency read?
Answer: inconclusive [activator, partial curve, poor fit]

Question: Which Potency does the source give for `Cc1cccc(-c2nnc(-c3cccc(NC(=O)Cc4cccs4)c3)o2)c1` here?
Answer: inconclusive [activator, partial curve, poor fit]

Question: Which Potency does the source give for `Clc1ccc(N(CC2CO2)CC2CO2)cc1` (configuration not stated) here?
Answer: inconclusive [activator, single point]

Question: Which “activity, positive = re-replication” value does the source give for `CC(=O)N1c2ccc(S(=O)(=O)N3CCC(C(=O)N4CCC(C)CC4)CC3)cc2CC1C` (configuration not stated) here?
Answer: inactive: -0.444%

Question: With `CCn1cc(CN2CCc3c([nH]c4ccccc34)C2c2cccc(OC)c2OC)c(C)n1` (configuration not stated) as the molecule, how does the “activity, positive = re-replication” value read?
Answer: inactive: 0.568%

Question: Which Potency does the source give for `C/C=C(/C(=C/C)c1ccc(O)cc1)c1ccc(O)cc1` here?
Answer: active: 4.61 µM

Question: With `COC(=O)CSc1[nH]c2ccc(Br)cc2c1[N+](=O)[O-]` as the molecule, how does the Potency read?
Answer: active: 11.6 µM

Question: Which Potency does the source give for `[O-]/C(=C(\C(=S)Nc1cccc2ccccc12)[n+]1ccccc1)c1ccc(OC(F)F)cc1` here?
Answer: inconclusive [activator, partial curve]

Question: With `CCOC(=O)C(CC)(CC)C(=O)/C=C/c1ccc(OC)cc1` as the molecule, how does the Potency read?
Answer: inconclusive [activator, partial curve, poor fit]

Question: Which “activity, positive = re-replication” value does the source give for `O=[N+]([O-])c1cccc(C2CC(c3ccccc3)=NN2c2ccccc2)c1` (configuration not stated) here?
Answer: inactive: 8.58%

Question: With `CC(=O)N/C(=C/c1ccc(OS(=O)(=O)c2ccc(C)cc2)cc1)C(=O)NCCCO` as the molecule, how does the “activity, positive = re-replication” value read?
Answer: inactive: -1.8%

Question: With `CC(C(=O)N(C)C1CCS(=O)(=O)C1)N1C(=O)/C(=C/c2ccc(F)cc2)SC1=S` (configuration not stated) as the molecule, how does the “activity, positive = re-replication” value read?
Answer: inactive: 20.9%

Question: For `CC(C)N(CC#CCC1(O)c2ccccc2-c2ccccc21)CCO`, which “activity, positive = re-replication” value is on record?
Answer: inactive: 0.748%

Question: With `Cc1cccc(N(C(=O)c2snc(C(N)=O)c2N)C(C(=O)NCC2CCCO2)c2cccs2)c1` (configuration not stated) as the molecule, how does the Potency read?
Answer: inconclusive [activator, partial curve, poor fit]

Question: For `Oc1ccc(/C=N/N(c2ccccc2)c2ccccc2)cc1O`, which Potency is on record?
Answer: inconclusive [activator, single point]

Question: For `Fc1ccc(/C=C2\CCCC3=C2Nc2ncnn2C3c2ccc(F)cc2)cc1` (configuration not stated), which Potency is on record?
Answer: active: 5.8 µM

Question: With `O=C(OCc1ccc(O)cc1)c1c(-c2ccsc2)oc2ccc(N3CCOCC3)cc12` as the molecule, how does the Potency read?
Answer: active: 20.6 µM

Question: With `COc1ccccc1C(=O)NCCSCc1c(F)cccc1Cl` as the molecule, how does the Potency read?
Answer: inconclusive [activator, full curve, poor fit]

Question: Which Potency does the source give for `O=c1[nH]cnc(O)c1C(c1ccc2c(c1)OCO2)c1c(O)nc[nH]c1=O` here?
Answer: inconclusive [activator, single point]

Question: With `O=C(O)CCCc1ccc2ccc3cccc4ccc1c2c34` as the molecule, how does the Potency read?
Answer: active: 16.4 µM

Question: For `CCCN(CCC)C(=O)c1cc2c(=O)n3cccc(C)c3nc2s1`, which Potency is on record?
Answer: inconclusive [activator, single point]

Question: For `Cc1nc(Cl)sc1C(=O)Nc1cccc(C(F)(F)F)c1`, which “activity, positive = re-replication” value is on record?
Answer: inactive: 12.9%

Question: With `CC(C)c1ccc(NS(=O)(=O)c2ccc(-n3cccn3)cc2)cc1` as the molecule, how does the Potency read?
Answer: inconclusive [activator, single point]

Question: For `Cc1cccc(N2CCN(C(=O)Cn3sc4nc(C)cc(C)c4c3=O)CC2C)c1` (configuration not stated), which Potency is on record?
Answer: inconclusive [activator, single point]

Question: With `COc1ccccc1-n1c(=S)sc2c(=O)n(Cc3ccco3)c(SC)nc21` as the molecule, how does the “activity, positive = re-replication” value read?
Answer: inactive: 7.51%

Question: Which Potency does the source give for `COc1cc2cc(CCCOC(=O)c3ccc(C#N)cc3)oc(=O)c2cc1OC` here?
Answer: inconclusive [activator, single point]

Question: Which Potency does the source give for `CC1=NN(C(N)=S)C(=O)C1N=Nc1cccc([N+](=O)[O-])c1` (configuration not stated) here?
Answer: inconclusive [activator, single point]

Question: With `COCCNc1c(-c2ccc(OC)c(OC)c2)nc2ccc(Cl)cn12` as the molecule, how does the Potency read?
Answer: inconclusive [activator, single point]

Question: For `Cc1cc(C)c2nc(C)cc(Nc3ccc(C(=O)N(C)C)cc3)c2c1`, which “activity, positive = re-replication” value is on record?
Answer: inactive: 0.579%

Question: Which Potency does the source give for `Fc1ccccc1/C=N/NC(=S)Nc1ccc(Cl)cc1Cl` here?
Answer: inconclusive [activator, partial curve]

Question: With `O=C(NC1CCCCC1)C(c1ccncc1)N(Cc1ccccc1)C(=O)c1ccc(-c2ccccc2)[nH]1` (configuration not stated) as the molecule, how does the Potency read?
Answer: inconclusive [activator, partial curve, poor fit]

Question: For `COc1ccc(CCc2ccc3ccccc3n2)cc1`, which Potency is on record?
Answer: active: 18.4 µM

Question: For `CCCNC(=O)C1CCN(S(=O)(=O)c2cccs2)CC1`, which “activity, positive = re-replication” value is on record?
Answer: inactive: 22.9%

Question: With `CCN(CC)C(=O)C12C(=O)Oc3ccccc3C1C2(C)C(=O)c1ccc(F)cc1` (configuration not stated) as the molecule, how does the Potency read?
Answer: inconclusive [activator, full curve, poor fit]

Question: For `CCOc1ccc(-c2nc(C#N)c(N3CCN(C)CC3)o2)cc1`, which “activity, positive = re-replication” value is on record?
Answer: inactive: 18.9%

Question: For `CCN(CC)c1ccc2cc(S(=O)(=O)c3ccc(Cl)cc3)c(=O)oc2c1`, which Potency is on record?
Answer: inconclusive [activator, full curve, poor fit]

Question: With `COc1ccc(N(CC(=O)N2CCCCC2)S(=O)(=O)c2c(C)nn(C)c2C)cc1` as the molecule, how does the “activity, positive = re-replication” value read?
Answer: inactive: -2.56%

Question: With `CCn1c(NC(=O)c2cccs2)nc2ccccc21` as the molecule, how does the “activity, positive = re-replication” value read?
Answer: inactive: -0.998%

Question: For `CC(C)=CC(=O)Nc1ccc(OCc2ccccc2)cc1`, which Potency is on record?
Answer: inconclusive [activator, single point]

Question: For `O=C(Nc1cccnc1)c1cc2c(s1)-c1ccccc1OC2`, which “activity, positive = re-replication” value is on record?
Answer: inactive: 0.453%

Question: For `Cc1nn(C(C)(C)C)c(C)c1/C=N/OC(=O)Nc1ccc(Cl)c(Cl)c1`, which “activity, positive = re-replication” value is on record?
Answer: inactive: 4.97%

Question: Which “activity, positive = re-replication” value does the source give for `CC1CC(C)CN(CCCOc2ccccc2[N+](=O)[O-])C1` (configuration not stated) here?
Answer: inactive: -0.659%

Question: With `COc1ccc(-c2nc(SC(C)C(=O)NCC3CCCO3)n[nH]2)cc1` (configuration not stated) as the molecule, how does the Potency read?
Answer: active: 13 µM

Question: For `CC(C)CC(=O)n1sc(NC(=O)c2ccccc2)nc1=O`, which Potency is on record?
Answer: inconclusive [activator, single point]

Question: Which “activity, positive = re-replication” value does the source give for `Cc1cccc(OCCSc2nncn2C)c1` here?
Answer: inactive: -0.429%

Question: Which Potency does the source give for `CC(OC(=O)c1ccc(Cl)c([N+](=O)[O-])c1)C(=O)N1CCN(Cc2ccccc2)CC1` (configuration not stated) here?
Answer: inconclusive [activator, partial curve, poor fit]

Question: Which Potency does the source give for `O=C1NCC(c2ccccc2)C1C(=O)N/N=C\c1ccc(-c2cccc(Cl)c2Cl)o1` (configuration not stated) here?
Answer: inconclusive [activator, partial curve]

Question: For `Cc1ccc(C(O)(CNCc2ccccc2)c2ccccc2)cc1` (configuration not stated), which Potency is on record?
Answer: inconclusive [activator, single point]

Question: For `Cc1cccc(-c2cc(C(=O)Nc3sc(C)c(C)c3C(N)=O)c3ccccc3n2)c1`, which “activity, positive = re-replication” value is on record?
Answer: inactive: -0.342%
